# Measured values taken from the supplement of paper PMC4604168 (melanoma cell lines).
# The other results are listed elsewhere or left out. Repeats are few or missing, and single values can be far off.
# Key:
# Experiment in all cases: cell count relative to DMSO control; melanoma cells; higher = more viable cells
# Settings in all cases: library dose: standard library concentration; 72 h
# [1] = system: G361
# [2] = system: IPC-298
# [3] = system: IST-MEL1
# [4] = system: LB2518-MEL
# [5] = system: LOXIMVI
# [6] = system: MEL-HO
# [7] = system: MZ2-MEL
# [8] = system: MeWo
# [9] = system: RPMI7951
# [10] = system: RVH-421
# [11] = system: SkMel28
# [12] = system: SkMel2
# [13] = system: SkMel30
# [14] = system: SkMel5
# [15] = system: UACC257
# [16] = system: UACC62
# [17] = system: WM115
# [18] = system: WM1716
# [19] = system: WM1745
# [20] = system: WM3526
# 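Further: cells treated in 1,536-well plates, then fixed and DAPI-stained, with nuclei counted from automated high-throughput microscope images.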
SMILES,cell count [1] [%],cell count [2] [%],cell count [3] [%],cell count [4] [%],cell count [5] [%],cell count [6] [%],cell count [7] [%],cell count [8] [%],cell count [9] [%],cell count [10] [%],cell count [11] [%],cell count [12] [%],cell count [13] [%],cell count [14] [%],cell count [15] [%],cell count [16] [%],cell count [17] [%],cell count [18] [%],cell count [19] [%],cell count [20] [%]
"O=C(O)c1ccc2c(c1)nc(Nc1cccc(Cl)c1)c1ccncc12 + CN(C)S(=O)(=O)c1ccc2c(c1)/C(=C/c1cc3c([nH]1)CCCC3)C(=O)N2 [SU6656] (first compound 2 µM, partner dose 2 µM)",41.7,54.7,61.7,78.4,34.3,40.7,54.6,68.4,30.6,47.7,37.2,76.3,44.7,67.1,53,72.5,44.8,59.5,45.1,50.1
"O=C(O)c1ccc2c(c1)nc(Nc1cccc(Cl)c1)c1ccncc12 + COCC[n+]1c2c(n(Cc3cnccn3)c1C)C(=O)c1ccccc1C2=O [YM155] (first compound 2 µM, partner dose 0.002 µM)",63.7,46.2,46.3,35.9,81.5,65.5,29.1,66.2,36.3,80.8,48.1,35.3,82,40.5,30.3,73.5,71.4,77.6,76.4,50.7
"Cn1nnc2c(C(N)=O)ncn2c1=O [temozolomide] + Cc1cc(N2CCOCC2)cc2[nH]c(-c3c(NC[C@@H](O)c4cccc(Cl)c4)cc[nH]c3=O)nc12 [BMS536924] (first compound 10 µM, partner dose 1 µM)",78.9,75.2,73.8,94.7,79.2,101,86.6,69.4,99.5,109,60.1,87.5,62.7,72.4,105,68,102,69.6,56.2,91.3
"O=C(Nc1cc(C(F)(F)F)cc(C(F)(F)F)c1)c1cc(Cl)ccc1O + Cc1cn(-c2cc(NC(=O)c3ccc(C)c(Nc4nccc(-c5cccnc5)n4)c3)cc(C(F)(F)F)c2)cn1 [nilotinib] (first compound 0.08 µM, partner dose 1 µM)",99.7,97.6,94.7,97.5,169,80.5,99,76.9,104,88.5,71.7,90.6,85.6,74.9,116,73.6,98.5,106,71.9,77.9
